Target: the molecule itself
Assay: SEC; gel-filtration profiles of the purified unligated and ligated CHK2 proteins

B1: pT68CHK2, ligation product containing CHK2 […] with a phosphorylated Thr-68 and a Ser-73 to Cys mutation (domain or fragment)
chain: not shown
modifications: phosphorylated Thr-68 (pT in LETVSpTQELY)
notes: synthetic peptide 15 (H-LETVSpTQELY-MPAA thioester), CHK2 residues 63-72; the sixth residue is phosphothreonine (Thr-68); CHK2 serine/threonine kinase, […] with N-terminal cysteine (S73C), prepared by expression; Semisynthetic protein; Expression host and tags of the […] portion may stand in the SI; also called phosphorylated CHK2 protein; ligated pT68CHK2; source: native chemical ligation of …
stoichiometry N: 2

Source: article PMC5113665 (Angewandte Chemie (International Ed. in English), 2016)
